The campaign covered roughly 45,000 compounds. About 65 (0.1%) were called active. Calls come from the whole dose curve; as a rule, active = well fitted activation curve with a large enough effect; inconclusive = small, poorly fitted or top-dose-only effect; inactive = no such curve, though single readings can be large or run the other way. The list shows a part of the results.

Sequence of UniProt P54803 (P54803 whole entry, looked up): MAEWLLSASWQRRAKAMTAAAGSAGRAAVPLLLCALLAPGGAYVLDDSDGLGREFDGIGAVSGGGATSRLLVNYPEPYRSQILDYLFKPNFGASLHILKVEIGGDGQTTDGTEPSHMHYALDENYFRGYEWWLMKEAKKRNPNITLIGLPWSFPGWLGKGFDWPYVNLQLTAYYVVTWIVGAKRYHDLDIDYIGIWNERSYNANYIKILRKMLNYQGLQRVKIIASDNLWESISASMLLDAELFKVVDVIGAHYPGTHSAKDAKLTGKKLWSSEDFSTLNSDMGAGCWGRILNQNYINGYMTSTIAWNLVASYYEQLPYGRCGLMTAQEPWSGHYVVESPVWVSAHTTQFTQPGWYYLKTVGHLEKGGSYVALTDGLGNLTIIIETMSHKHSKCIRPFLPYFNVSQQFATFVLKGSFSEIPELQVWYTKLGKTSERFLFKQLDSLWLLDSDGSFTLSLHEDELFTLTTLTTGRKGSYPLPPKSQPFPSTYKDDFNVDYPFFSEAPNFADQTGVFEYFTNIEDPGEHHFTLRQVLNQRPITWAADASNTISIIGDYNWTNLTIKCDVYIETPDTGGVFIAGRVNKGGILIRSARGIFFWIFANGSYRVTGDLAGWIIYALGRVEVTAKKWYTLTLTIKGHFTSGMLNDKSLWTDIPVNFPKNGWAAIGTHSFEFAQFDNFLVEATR

The assay deals with Galactocerebrosidase (Homo sapiens) (UniProt P54803). Description: A Novel Cell-Based Assay to Identify Small Molecules for B -Galactocerebrosidase. Note: 0% is about no effect; nearly all actives have a fitted effect of over 65% in size. The settings on record: 145M-Twi-hGALC-G270D cells (Twitcher mouse brain line with human GALC G270D), HMU-beta-Gal fluorescence, 48 h; series mostly up to 57.5 µM; activation: at the top concentration. In short, it runs like this:
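Fluorescence readout: HMU-β-gal cleavage by mutant GALC (0.1 mM final, citrate/phosphate pH 5.2 with 1 mg/mL taurocholate), stopped with carbonate/bicarbonate plus Triton X-100. Cells: murine Twitcher 145M-Twi expressing human G270D GALC; qHTS for activators.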
As to `CCOc1ccccc1Nc1nc2c(S(=O)(=O)c3ccc(C)cc3)nnn2c2ccsc12`, the “activation” value was inactive: 1.06%. Consider `CC(C)(C)OC(=O)N1CCC(c2c(C(=O)NCCN3CCOCC3)cnn2-c2ccc(F)cc2F)CC1`, for which the “activation” value was inactive: -7.02%.

Regarding `CCc1ccc(NC(=O)CN2C(=O)CC(c3ccccc3)Sc3ccccc32)cc1` (configuration not stated), the “activation” value was inactive: 4.81%. In the case of `CCCCN(C)CCNC(=O)c1cc(-c2ccc(Cl)s2)nc2ccccc12` it was inactive: -11.6%; in that of `COc1ccc(-c2cccc(NS(=O)(=O)c3ccc(NC(C)=O)cc3)c2)nn1`, inactive: -18.7%; in that of `CCCCCNC(=O)C1CCC(Cn2c(=O)c3sccc3n(CC)c2=O)CC1` (configuration not stated), inactive: -2.07%. For the compound `CCc1cccc(C)c1NC(=O)CN1C(=O)c2cccc3cccc1c23`, the “activation” value was inactive: -11.4%. `CC(=O)Nc1ccc(NC(=O)c2ncoc2-c2ccco2)cc1`: the “activation” value was inactive: -0.307%. Consider `Cc1ccc2nc(CSc3nnc(NC(=O)c4ccc(C(C)(C)C)cc4)s3)cc(=O)n2c1`, for which the “activation” value was inactive: -6.42%. Regarding `Cc1ccc(-c2nc3scc(CCNS(=O)(=O)c4ccc(Oc5ccccc5)cc4)n3n2)cc1`, the “activation” value is inactive: -21.9%. As for `CCOC(=O)c1c(-c2ccccc2)csc1NC(=O)c1nc(SCC)ncc1Cl`, the “activation” value is inactive: -18.3%. For `COc1cccc(/C=C(\C#N)C(=O)Nc2ccc(NC(C)=O)cc2)c1OC`, the “activation” value is inactive: -4.98%.

Take `COc1ccc(NC(=O)CSc2cn(CCNC(=O)c3ccc(OC)cc3)c3ccccc23)cc1`: the “activation” value was inactive: -9.35%.

As for `Cc1ccc(CN2C(=O)C3(c4ccccc42)N(c2ccc(C)c(Cl)c2)C(=O)CS3(=O)=O)cc1` (configuration not stated), the “activation” value is inactive: -3.24%. On to `COc1ccc(Br)cc1CNC(=O)CSc1n[nH]c(-c2ccccc2)n1`, for which the “activation” value is inactive: -5.8%. Turning to `CCC(C)[C@H](N)c1nnc(SCc2ccc(Cl)c(Cl)c2)o1` (some centres not stated), the “activation” value is inactive: -21.5%. In the case of `Cc1oc(-c2cccc(Br)c2)nc1Cn1c(SCc2cccc(F)c2)nc2cccnc21` it was inactive: -9.91%; in that of `O=C(CCC1N=C2c3ccccc3N=C(SCc3cccc(Cl)c3)N2C1=O)NCCc1ccccc1` (configuration not stated), inactive: -12.3%; in that of `COc1ccc(NC(=O)CCS(=O)(=O)c2ccc3c(c2)n(C)c(=O)c(=O)n3C)cc1Cl`, inactive: -6.2%. In the case of `CCCCC(O)/C=C(C)/C=C/C=C/C(=O)N1CCCC1=O` (configuration not stated) it was inactive: -8.56%; in that of `Cc1ccc(S(=O)(=O)NCCSc2nnnn2-c2ccccc2)cc1`, inactive: -13.1%. In the case of `COc1ccc2c(c1)NC(c1ccc(Cl)cc1)=NC(c1cccs1)=N2` it was inactive: -6.05%; in that of `CN1CCN(C2=Nc3cc(F)ccc3Cc3ccccc32)CC1`, inactive: -1.42%. Regarding `CCn1c(CN2CCCCC2)nc2cc(NC(=O)COc3ccc(C(C)(C)C)cc3)ccc21`, the “activation” value was inactive: -15.3%.

For the compound `CC1=C(C(=O)Nc2ccccc2)C(c2ccc(O)cc2)n2nc(-c3ccc(Cl)cc3)nc2N1` (configuration not stated), the “activation” value is inactive: -0.278%. On to `Cc1ccc(C)c(Cn2c(=O)n(Cc3ccccc3)c(=O)c3sc4ccccc4c32)c1`, for which the “activation” value was inactive: -11.7%. In the case of `CC(C)(C)c1ccc(-c2nnc(-c3ccccc3NC(=O)c3cccc(C(F)(F)F)c3)o2)cc1`, the “activation” value is inactive: -24.7%.

(Values after PubChem BioAssay AID1159614 (National Center for Advancing Translational Sciences (NCATS), 2016).)
